Assay results: PubChem BioAssay AID1745853 (National Center for Advancing Translational Sciences (NCATS), 2022)
This is one part of the list. The main result of the screen is listed elsewhere. These columns were measured beside it and carry no call.

Columns and labels:
Experiment in all cases: Primary Screen for Target Class Profiling of Small Molecule Inhibitors of Methyltransferases
[1] = biological target: Glycine N-methyltransferase (Homo sapiens) (UniProt Q14749); settings: purified enzyme, MTase-Glo SAH luminescence; measured here: GNMT inhibition; at 40 µM; stronger effect = lower value
How it was run: (§1)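 Each enzyme was reacted with SAM and its substrate, with compounds tested once at 40 uM; SAH formed was read by MTase-Glo luminescence.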

[2] = biological target: Guanidinoacetate N-methyltransferase (Homo sapiens) (UniProt Q14353); settings: purified enzyme, MTase-Glo SAH luminescence; measured here: GAMT inhibition; at 40 µM; stronger effect = lower value
How it was run: as §1

[3] = biological target: Histamine N-methyltransferase (Homo sapiens) (UniProt P50135); settings: purified enzyme, MTase-Glo SAH luminescence; measured here: HNMT inhibition; at 40 µM; stronger effect = lower value
How it was run: as §1

[4] = biological target: Nicotinamide N-methyltransferase (Homo sapiens) (UniProt P40261); settings: purified enzyme, MTase-Glo SAH luminescence; measured here: NNMT inhibition; at 40 µM; stronger effect = lower value
How it was run: as §1

[5] = biological target: Phenylethanolamine N-methyltransferase (Homo sapiens) (UniProt P11086); settings: purified enzyme, MTase-Glo SAH luminescence; measured here: PNMT inhibition; at 40 µM; stronger effect = lower value
How it was run: as §1
% is set by controls: 0 for no effect and ±100 for the full control effect.

| SMILES | activity change, negative = inhibition [1] | activity change, negative = inhibition [2] | activity change, negative = inhibition [3] | activity change, negative = inhibition [4] | activity change, negative = inhibition [5] |
| --- | --- | --- | --- | --- | --- |
| CCOc1ccc(CCNC(=O)c2cc3n(n2)CC(C)(C(=O)NCc2ccccc2)N(C)C3=O)cc1 (stereo not given) | 0.17% | 0% | 4.49% | 1.84% | 2.64% |
| Cc1cc(C)cc(N2C(=O)c3cc4occc4n3CC2(C)C(=O)NC2CCCCCCC2)c1 (stereo not given) | 0.682% | 0.289% | 5.14% | 1.59% | 1.48% |
| COc1ccc(CNC(=O)Cn2ccc3cc(S(=O)(=O)N4CCC(C)CC4)ccc32)cc1 | 5.48% | 0.131% | 6.28% | 6.02% | 5.67% |
| O=C(Cn1ccc2ccccc2c1=O)N1CCCOC(Cn2cccn2)C1 (stereo not given) | -11.1% | -10.7% | -1.95% | -8.53% | -1.55% |
| Cc1ccc(-c2ccccc2CN2CCN([S+](=O)([O-])c3cccc(C(F)(F)F)c3)CC2)cc1Cl | -6.8% | -6.67% | -2.47% | -11% | -8.53% |
| COc1ccccc1CNC(=O)Cn1ccc2cc(S(=O)(=O)N3CCCCC3)ccc21 | 6.93% | 2.35% | 2.77% | 2.84% | 3.83% |
| O=C1CC2CCCC(C1)N2C(=O)c1cc(F)ccc1Br | -2.14% | -3.76% | -0.467% | -2.19% | -1.15% |
| CCN(CCCNC(=O)CCc1nnc2n(Cc3ccccc3)c(=O)c3ccccc3n12)c1ccccc1 | 0.504% | 3.34% | -11% | -9.85% | -2.02% |
| CCc1ccc(CN2C(=O)c3cc4ccccc4n3CC2(C)C(=O)NCCCOC(C)C)cc1 (stereo not given) | -4.58% | 3.8% | -2.4% | -1.37% | -3.19% |
| Cc1nc(-c2cn(C3CCCN(C(=O)C(C)Oc4ccccc4)C3)nn2)no1 (stereo not given) | 0.953% | 1.53% | -1.15% | 0.165% | -1.41% |
| COC(=O)c1cc2n(n1)CC(C)(C(=O)NC1CCCCCC1)N(c1ccc(F)cc1C)C2=O (stereo not given) | 4.57% | 0.049% | -6.27% | 11.6% | 7.88% |
| CCCN1C(=O)c2cc(C(=O)N3CCN(c4ccccc4F)CC3)nn2CC1(C)C(=O)NC1CCCC1 (stereo not given) | 6.15% | 0% | 11.4% | 12% | 4.69% |
| N#Cc1ccc(O[C@@H]2CCOC[C@H]2NC(=O)CCCn2cncn2)cc1 | -2.31% | 1.7% | 1.71% | 0.407% | -15.2% |
| Cc1oc(C(=O)O)cc1COc1ccc2c(-c3ccccc3)cc(=O)oc2c1C | -45.6% | -6.03% | -17.9% | -16.2% | -30.5% |
| CCC(C)NC(=O)c1ccc2c(=O)n(C)c3nn(CC(=O)Nc4ccc(Cl)cc4)c(=O)n3c2c1 (stereo not given) | 2.4% | 3.03% | 0.206% | 0.429% | -2.46% |
| CC1(C)CC[C@]2(C(=O)O)CC[C@]3(C)C(=CCC4[C@@]5(C)CC[C@H](O[C@@H]6O[C@H](C(=O)O)[C@@H](O)[C@H](O)[C@H]6O)C(C)(CO)C5CC[C@]43C)C2C1 (stereo not given in full) | 3.13% | -3.28% | 7.3% | -13.9% | -2.14% |
| O=C(c1cc(CC2(NCc3ccccc3F)COC2)no1)N1CCCCC1 | -7.21% | -8.94% | -4.09% | -9.23% | 9.87% |
| CC1CCC2C(C(=O)O)=COC(O[C@@H]3O[C@H](CO)[C@@H](O)[C@H](O)[C@H]3O)C12 (stereo not given in full) | -3.85% | -7.03% | 4.33% | -13.7% | -9.31% |
| COc1cccc(N2C(=O)c3cc(-c4ccccc4)nn3CC2(C)C(=O)NCc2ccccc2OC)c1 (stereo not given) | -7.31% | 1.39% | -6.21% | -11.2% | -10.5% |
| O=C1C(Cc2ccc(O)cc2)N2C(=O)CCN(C(=O)NCc3ccccc3)C2CN1Cc1cccc2ccccc12 (stereo not given) | -4.22% | 6.38% | 6.19% | -19% | -4.71% |
| CCN(c1cc(-c2ccc(CN3CCOCC3)cc2)cc(C(=O)NCc2c(C)cc(C)[nH]c2=O)c1C)C1CCOCC1 | -7.2% | 0.224% | -3.75% | -18.8% | -10.9% |
| O=S(=O)(c1ccccc1)c1nnn2c1nc(NC1CCN(Cc3ccccc3)CC1)c1cc(Cl)ccc12 | -2.04% | 3.82% | -6.74% | -5.2% | -4% |
| CC1CC(O)C2(C)C(C(=O)O)=CCCC2C1(C)CCc1ccoc1 (stereo not given) | 0.768% | 2.21% | 8.8% | -17.1% | 5.07% |
| C=C1C(=O)OC2/C=C(\C)CC/C=C(\C(=O)O)CC/C=C(\C)CCC12 (stereo not given) | 1.39% | 3.87% | 11.3% | -11.7% | 5.15% |
| CCn1cc(CN(C)CC(=O)N2CCCCCC2)ccc1=O | -2.2% | -0.662% | 0.1% | -0.398% | 2.36% |
| O=C(C1CCC1)N1CCC[C@H]1c1nc(-c2ccc(F)cc2)n[nH]1 | 3.23% | -2.04% | 0.745% | -8.07% | 10.3% |
| Cc1ccc(S(=O)(=O)NCCn2c(CCc3ccccc3)nc3ccccc32)c(C)c1 | -5.78% | 0% | 0.577% | -11% | 2.53% |
| COc1ccccc1-c1nc2nccc(-c3cc(OC)c(OC)c(OC)c3)n2n1 | -14% | -7.44% | -19.1% | -10.6% | -2.9% |
| COc1cc(/C=C/C(=O)OC[C@H]2O[C@@H](OC3CC(C)=C(C(=O)O)C(C)(C)C3)[C@H](O)[C@@H](O)[C@@H]2O)cc(OC)c1O (stereo not given in full) | 0.684% | 5.84% | 8.76% | -6.48% | 3.04% |
